Reference: PubChem BioAssay AID485297 (National Center for Advancing Translational Sciences (NCATS), 2010)
About 9,100 (2.8%) of roughly 320,000 compounds were called active. Inconclusive means that the source gave no clear call. Such entries were picked first, then a sample of the others. The call rests on the fitted dose curve; in most records, active means well fitted activation curve with a large enough effect; inconclusive means small, poorly fitted or top-dose-only effect; inactive means no such curve, though single readings can be large or run the other way. Potencies of inconclusive entries are left out as doubtful fits.
Potency means the concentration at half of the fitted maximal effect; tags describe the fitted curve by direction and shape.

Test: qHTS Assay for Rab9 Promoter Activators; further: nearly all actives have a fitted effect of over 60% in size; on activation, negative = inhibition: % of control where 0% means no effect
Conditions: Huh7 Rab9 promoter-luciferase reporter, luminescence, 24 h; series mostly up to 9.22 µM; activation, negative = inhibition: at the top concentration
How it was run: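 Luciferase signal after 10 min detection reagent at ambient indicates Rab9 promoter upregulation; stably transfected Huh7 cells were treated 24 h with compound in DMSO at 37 °C, 5% CO2.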
With `O=C1OC(C(=O)Nc2ccccc2)Cc2ccccc21` (configuration not stated) the Potency was inconclusive [activator, partial curve].
With `COc1ccc(C(=O)Nc2cc(C)c(NC(=O)c3ccccc3OC)cn2)cc1` the Potency was inconclusive [activator, single point].
With `CSc1ccccc1NC(=O)c1cnc2sc(C)cn2c1=O` the Potency was inconclusive [activator, single point].
For `COc1ccc(/C=N/Nc2nnc(-c3ncc[nH]3)c3ccccc23)cc1`, the Potency was inconclusive [activator, partial curve].
For `CCOc1ccc(N(CC(=O)Nc2ccccc2)S(C)(=O)=O)cc1`, the Potency was inconclusive [activator, single point].
For `Cc1ccc(/C=N/Nc2ccc(Cl)c(C(=O)O)c2)s1`, the Potency was active: 0.316 µM.
In the case of `O=c1nc2sc3ccccc3n2c(=O)n1-c1cccc(Cl)c1`, the Potency is reported as inconclusive [activator, single point].
With `NC(=O)c1ccccc1OCC(=O)Nc1ccc2c(c1)OCCO2` the Potency was active: 3.16 µM.
For `CCOC(=O)N1CCN(C(=O)CSCC(=O)Nc2nc(-c3cccs3)cs2)CC1`, the “activation, negative = inhibition” value was inactive: 2.7%.
For `COc1cc(/C=C/c2noc(-c3ccccc3O)n2)ccc1OC(C)=O`, the Potency was inconclusive [activator, single point].
In the case of `Cc1ccc(/C=N/NC(=O)c2c[nH]c3ccccc23)s1`, the Potency is reported as active: 0.562 µM.
In the case of `O=C(Nc1ccccc1)N1CCCC(CNS(=O)(=O)Cc2ccccc2)C1` (configuration not stated), the “activation, negative = inhibition” value is reported as inactive: -1.7%.
With `O=C(N/N=C/c1cccc(Oc2ccccc2)c1)c1cc[n+]([O-])cc1` the “activation, negative = inhibition” value was inactive: -4.18%.
With `Cc1ccccc1-c1nc(-c2ccc(NC(=O)c3ccc(Br)o3)cc2)no1` the Potency was inconclusive [activator, partial curve].
For `O=[N+]([O-])c1ccc(N=Cc2sc3ccccc3c2O)cc1`, the Potency was inconclusive [activator, single point].
With `Cc1occc1C(=O)OCC(=O)Nc1ccc(F)cc1` the Potency was inconclusive [activator, single point].
In the case of `Cc1ccccc1OCc1ccc(C(=O)N2CC(C)OC(C)C2)o1` (configuration not stated), the “activation, negative = inhibition” value is reported as inactive: 2.7%.
With `Cc1ccc(C(=O)Nc2ncccc2O)o1` the Potency was inconclusive [activator, single point].
For `Cc1cc(C(=O)N/N=C/c2cccs2)n[nH]1`, the Potency was inconclusive [activator, single point].
In the case of `N#C/C(=C(/O)C(Cl)c1ccccc1)c1nc2ccccc2s1` (configuration not stated), the Potency is reported as inconclusive [activator, single point].
For `Cc1nc(NC(=O)CCc2ccccc2)ccc1Br`, the Potency was inconclusive [activator, single point].
For `COc1cccc2sc(Nc3nc(-c4ccccn4)cs3)nc12`, the Potency was inconclusive [activator, partial curve, poor fit].
For `O=C(Nc1nccs1)c1cn2ccccc2n1`, the Potency was active: 0.112 µM.
With `Cc1ccc(N/N=C(\C#N)C(=N)N2CCOCC2)cc1` the Potency was inconclusive [activator, partial curve].
For `Cc1cccc(NC(=O)c2ccc3c(Cl)c4c(nc3c2)CCCC4)n1`, the Potency was active: 0.562 µM.
In the case of `O=C(Nc1cccnc1)c1cc(-c2cccs2)on1`, the Potency is reported as inconclusive [activator, single point].
For `COc1ccc2nc(N3C(=O)C(O)=C(C(=O)c4ccco4)C3c3ccc(C)o3)sc2c1` (configuration not stated), the “activation, negative = inhibition” value was inactive: -4.69%.
In the case of `C/C=C/c1ccc(OCC(=O)Nc2ccc(C(N)=O)cc2)c(OC)c1`, the “activation, negative = inhibition” value is reported as inactive: 3.56%.
With `Cc1ccc(C(=O)/C=C2\NCC(C)NC2=O)cc1` (configuration not stated) the Potency was active: 0.316 µM.
For `O=C1S/C(=C\c2cccs2)C(=O)N1c1ccc(O)cc1`, the Potency was inconclusive [activator, single point].
For `Cc1ccn2cc(-c3cc4ccccc4oc3=O)nc2c1`, the Potency was active: 0.282 µM.
For `CCNS(=O)(=O)c1ccc2nc(NC(=O)c3cccnc3)sc2c1`, the Potency was inconclusive [activator, single point].
With `O=C(Nc1ccc(N2CCCCC2)cc1)c1ccc(F)cc1F` the Potency was active: 0.355 µM.
With `O=C(c1ccc(-n2cccn2)cc1)N1CCc2ccccc2C1` the “activation, negative = inhibition” value was inactive: 20.9%.
In the case of `COc1cccc(-c2nc(C=O)cs2)c1`, the “activation, negative = inhibition” value is reported as inactive: 0.497%.
With `Cc1cc(-c2onc3ccc(Cl)cc23)ccc1O` the “activation, negative = inhibition” value was inactive: 1.33%.
For `O=c1nccc(N/N=C/c2ccccc2)[nH]1`, the Potency was inconclusive [activator, single point].
With `O=C(Nc1ccc(Cl)cc1)/C(=C1\CCCN1)[N+](=O)[O-]` the Potency was active: 2.82 µM.
With `O=C(Nc1ccc(N2CCOCC2)cc1)c1cnccn1` the Potency was active: 0.316 µM.
With `O=C(Nc1ccccc1)C(=O)c1cn(CC(=O)N2CCCCC2)c2ccccc12` the “activation, negative = inhibition” value was inactive: 0.415%.
For `COc1cc(OC)cc(-c2nnc(SCc3c(F)cccc3Cl)o2)c1`, the Potency was active: 3.55 µM.
With `Cc1ccc(NC(=O)COc2ccc3c(c2)OCO3)c(Cl)c1` the Potency was inconclusive [activator, partial curve].
With `COc1ccccc1C(=O)COC(=O)COc1cccc2c1OC(C)(C)C2` the Potency was active: 2.51 µM.
In the case of `O=C(Nc1ccc(S(=O)(=O)C(F)F)cc1)c1cccc(S(=O)(=O)N2CCOCC2)c1`, the “activation, negative = inhibition” value is reported as inactive: -6.58%.
With `O=C1C=CC(=C(c2ccc(O)cc2)c2ccc(O)cc2)C=C1` the “activation, negative = inhibition” value was inactive: -38.9%.
In the case of `COc1cc(Cl)ccc1OCc1cc(C(=O)N2CC[C@@H]3CCCC[C@H]3C2)no1`, the Potency is reported as inconclusive [activator, single point].
With `COc1ccc(NC(=O)N2CCCC2C(=O)NCc2ccc(C)cc2)cc1` (configuration not stated) the “activation, negative = inhibition” value was inactive: -1.09%.
In the case of `Cc1c(C2(c3c(C)n(C)n(-c4ccccc4)c3=O)C(=O)Nc3ccc(F)cc32)c(=O)n(-c2ccccc2)n1C`, the Potency is reported as inconclusive [activator, single point].
With `Cc1sc(N)nc1-c1ccc(Oc2ccccc2)cc1` the “activation, negative = inhibition” value was inactive: 29.1%.
In the case of `Cn1c(N2CCOCC2)c(/C=N/OC(=O)c2ccc(F)cc2)c2ccccc21`, the “activation, negative = inhibition” value is reported as inactive: -32.6%.
In the case of `CC1CCCCN1C(=O)c1cc(-c2ccc(Cl)c(Cl)c2)on1` (configuration not stated), the Potency is reported as active: 2.51 µM.
In the case of `C/C(=N\NC(=O)c1cccc(Cl)c1)C1C(=O)c2ccccc2C1=O`, the Potency is reported as inconclusive [activator, single point].
